In PubChem BioAssay AID1963319 (National Center for Advancing Translational Sciences (NCATS), 2024):
Screen size: about 1,300 compounds; about 120 (9.2%) were called active. The inconclusive results got no clear call from the source; some entries with a clear call stand among them for comparison. Calls follow the shape of the dose curve; as a rule, active = well fitted activation curve with a large enough effect; inconclusive = small, poorly fitted or top-dose-only effect; inactive = flat fitted curve, though single readings scatter. Potencies of inconclusive entries are doubtful fits and often do not repeat.

Molecular target: Luciferin 4-monooxygenase (Photinus pyralis) (UniProt P08659)
Sequence of UniProt P08659 (P08659 whole entry, looked up): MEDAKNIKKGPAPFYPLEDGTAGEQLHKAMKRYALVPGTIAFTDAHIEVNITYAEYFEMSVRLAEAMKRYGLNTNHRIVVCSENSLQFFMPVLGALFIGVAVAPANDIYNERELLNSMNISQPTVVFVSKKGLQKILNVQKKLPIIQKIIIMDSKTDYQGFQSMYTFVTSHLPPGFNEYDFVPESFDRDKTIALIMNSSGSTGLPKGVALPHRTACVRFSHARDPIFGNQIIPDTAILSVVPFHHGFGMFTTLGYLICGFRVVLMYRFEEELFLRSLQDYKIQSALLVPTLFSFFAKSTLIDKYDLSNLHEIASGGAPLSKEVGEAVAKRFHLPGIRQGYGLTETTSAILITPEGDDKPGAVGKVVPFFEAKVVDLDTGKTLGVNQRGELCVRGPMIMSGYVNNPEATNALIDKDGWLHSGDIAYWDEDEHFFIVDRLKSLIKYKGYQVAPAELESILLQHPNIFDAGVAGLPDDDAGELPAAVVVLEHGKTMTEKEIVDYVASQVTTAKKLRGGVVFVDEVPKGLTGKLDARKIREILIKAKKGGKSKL
Test: Firefly luciferase (FLuc-C-HiBiT) SDR gain of signal screen - plus ATP;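 also: signal reports ligand binding via conformational change of the enzyme rather than luciferase catalysis; nearly all actives have a fitted effect of over 55% in size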
Settings: purified FLuc-C-HiBiT + ATP, HiBiT complementation luminescence; series mostly up to 32.7 µM
In short: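 Steps: 10 nM FLuc-C-HiBiT plus 10 uM ATP; pin-transfer compounds and PTC124 control; incubate >30 min RT, light-protected; add Nano-Glo HiBiT reagent; 5-10 min RT; CCD luminescence, 1 sec exposure.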
Potency is read from the fitted curve at half-maximal effect; tags tell the direction and shape of the fitted curve.

Potency, inactive:
COc1cc(NC(=O)c2ccc(-c3ncn[nH]3)cc2)ccc1NC(=O)C(C)(C)C
NC(=O)[C@@H]1CCCN1C(=O)c1ccc2oc(-c3cccc(F)c3)nc2c1
Cc1ccc(NCc2nc3ccccc3n2CCOc2ccccc2)cc1
COc1cccc(CN2CCc3c(cc(C(=O)Nc4cc(C)ccc4OC)n3C)C2)c1
Nc1nccc(-c2c(-c3ccc(F)cc3)ncn2C2CCNCC2)n1
OCCN1CCN(c2nc(N3CCCCC3)c3cnn(-c4ccc(Cl)cc4)c3n2)CC1
Cc1cc(-c2cccc(COc3ccc4c(cnn4CC[S+](C)(=O)[O-])c3)c2)ccn1
c1ccc(Nc2cc3c(cn2)CN(CC2CCOC2)CCN3)cc1 (stereo not drawn)
COc1ccc(C(=O)Nc2cc(S(=O)(=O)c3ccc(Cl)cc3)c(O)c(C)c2C)cc1
COc1ccc(Nc2nc(-c3cccc(OC)c3)no2)cc1

Potency, active:
O=C(O)c1cccc(-c2noc(-c3ccccc3C(F)(F)F)n2)c1 0.124 µM
CN(C)C(=O)c1cccc2c1CCN2C(=O)Nc1ccc(F)cc1 6.24 µM
O=C(Nc1cccc(F)c1)C1CCN(C(=O)c2ncn3c2COC(c2ccccc2)C3)CC1 (stereo not drawn) 0.989 µM
COc1ccc2oc(=O)c(C(=O)Nc3cccc(C(=O)O)c3)cc2c1 0.0495 µM
CC1CCC(NC(=O)C2CCN(C(=O)c3ncn4c3COC(c3ccccc3)C4)CC2)CC1 (stereo not drawn) 3.13 µM
Nc1c(C(=O)Nc2ccc(C(=O)O)cc2)sc2nc3c(cc12)CCCC3 0.248 µM
CC(C)NC(=O)C1CCN(C(=O)c2ncn3c2COC(c2ccccc2)C3)CC1 (stereo not drawn) 4.42 µM

Potency, inconclusive:
O=C(Nc1nc2c(s1)CCCC2)c1ccccc1F 1.76 µM [activator, full curve]
Cc1csc(NC(=O)c2ccc3c(c2)OCC(=O)N(C)C3)n1 22.7 µM [activator, partial curve, poor fit]
CC(=O)NC1(C)CCN(Cc2cccc(-c3ccc4c(ccn4C)c3)c2)C1 (stereo not drawn) 5.7 µM [activator, full curve]
O=C(NCc1ccncc1)C1CCN(C(=O)c2ncn3c2COC(c2ccc(F)cc2)C3)CC1 (stereo not drawn) 6.24 µM [activator, full curve]
O=C(Nc1cccc(-c2nc3ccccc3s2)c1)N1CCC(O)C1 (stereo not drawn) 14 µM [activator, partial curve, poor fit]
O=C(O)c1cccc2c1CCN2C(=O)c1ccccc1 2.21 µM [activator, full curve]
CC(C)Oc1ccc(C(=O)Nc2nnc3n2CCS3)cc1 15.7 µM [activator, partial curve]
O=S(=O)(c1cccc(Cl)c1)n1c(/C=C/c2ccccc2Cl)nc2ccccc21 1.57 µM [activator, full curve]
O=C(NCCc1ccccc1)c1ccc2c(c1)nc1n2CCOC1 12.4 µM [activator, partial curve]
COc1ccccc1-c1noc(-c2ccc(N3CCN(C)CC3)c([N+](=O)[O-])c2)n1 1.97 µM [activator, full curve]
Cc1ccc(C2Cn3nnc(C(=O)N4CCC(C(=O)NC5CC5)CC4)c3CO2)cc1 (stereo not drawn) 11.1 µM [activator, partial curve]
OC1CCN(c2ncnc3c2cnn3-c2ccccc2)CC1 12.4 µM [activator, partial curve, poor fit]
O=C(Nc1cccc(-c2ccc(N3CCOCC3)nn2)c1)Nc1ccc2c(c1)CCC2 7.85 µM [activator, partial curve, poor fit]
N#Cc1c(-n2ncnc2-c2ccccc2Cl)sc2c1CCCCC2 1.57 µM [activator, full curve, poor fit]
CC(C)c1ccc(NC(=O)c2ccc(CN3C(=O)NC4(CCOCC4)C3=O)cc2)cc1 11.1 µM [activator, partial curve, poor fit]
COc1ccc(NC(=O)C2CCN(C(=O)c3ncn4c3COC(c3ccccc3)C4)CC2)cc1 (stereo not drawn) 11.1 µM [activator, partial curve]
Cc1cccc(-c2nnc(SCCC(=O)O)o2)c1 11.1 µM [activator, partial curve, poor fit]
Cc1cn2nc(C(=O)Nc3ccc(C(=O)NCCc4cccs4)cc3)cc2c(=O)[nH]1 4.42 µM [activator, partial curve]
Cc1ccc(-c2cc3c(=O)n(CCNC(=O)c4ccccc4F)ccn3n2)c(C)c1 14 µM [activator, partial curve, poor fit]
CSc1cccc(NC(=O)c2ccc3c(c2)N(C)C2CCCN2C3=O)c1 (stereo not drawn) 12.4 µM [activator, partial curve, poor fit]
COc1ccc(NC(=O)Cn2c(SCc3ccc(C)cc3)nc3cccnc32)cc1OC 1.57 µM [activator, full curve]
COc1ccc(C)cc1NC(=O)C1CCN(C(=O)c2ncn3c2COC(c2ccc(F)cc2)C3)CC1 (stereo not drawn) 9.89 µM [activator, partial curve]
Cc1c(-c2ccccc2F)[nH]c2ccc(CNC(=O)C3CCCN(C(N)=O)C3)cc12 (stereo not drawn) 14 µM [activator, partial curve, poor fit]
Cc1ccc(NC(=O)Nc2ccc(C)n(CC(=O)NC(C)c3cccnc3)c2=O)cc1 (stereo not drawn) 7.85 µM [activator, partial curve]
Cc1ccc(NC(=O)Nc2ccc(C)n(CC(=O)NCCC(C)C)c2=O)cc1 2.21 µM [activator, full curve]
CCN(c1ncnc2c1cnn2-c1cccc(Cl)c1)C1CCCCC1 1.97 µM [activator, full curve, poor fit]
